Patent publication US9234216B2, “Variant CBH I polypeptides” (BP Corporation North America Inc., priority 2011, dated 2016)
Numbering of substitutions follows the chain as printed. In names and notes the source's numbering stands.

B1: SEQ ID 101, 102: BD29555 CBH I entry site variant: Y31L, T32W, F120-VTGSNVG-S128 → F120-VQQGPYSKNVG-S132 (protein)
chain: MSALNSFNMYKSALILGSLLATAGAQQIGTLWAETHPSLSWSTCKSGGSCTTNSGAITLDANWRWVHGVNTSTNCYTGNTWNTAICDTDASCAQDCALDGADYSGTYGITTSGNSLRLNFVQQGPYSKNVGSRTYLMADNTHYQIFDLLNQEFTFTVDVSHLPCGLNGALYFVTMDADGGVSKYPNNKAGAQYGVGYCDSQCPRDLKFIAGQANVEGWTPSSNNANTGLGNHGACCAELDIWEANSISEALTPHPCDTPGLSVCTTDACGGTYSSDRYAGTCDPDGCDFNPYRLGVTDFYGSGKTVDTTKPITVVTQFVTDDGTSTGTLSEIRRYYVQNGVVIPQPSSKISGVSGNVINSDFCDAEISTFGETASFSKHGGLAKMGAGMEAGMVLVMSLWDDYSVNMLWLDSTYPTNATGTPGAARGSCPTTSGDPKTVESQSGSSYVTFSDIRVGPFNSTFSGGSSTGGSSTTTASGTTTTKASSTSTSSTSTGTGVAAHWGQCGGQGWTGPTTCASGTTCTVVNPYYSQCL
B2: SEQ ID 117, 118: BD29555 CBH I entry site variant: Y31L, T32Y, T77D, F120-VTGSNVG-S128 → F120-VQQGPYSKNVG-S132 (protein)
chain: B1 chain with W32Y, T77D
B3: SEQ ID 115, 116: BD29555 CBH I entry site variant: S72W, T73Q, F120-VTGSNVG-S128 → F120-VQQGPYSKNVG-S132 (protein)
chain: B1 chain with L31Y, W32T, S72W, T73Q
B4: SEQ ID 103, 104: BD29555 CBH I entry site variant: T32Q, F120-VTGSNVG-S128 → F120-VTKGSFSSNIG-S132 (protein)
chain: B1 chain with L31Y, W32Q, Q122T, Q123K, P125S, Y126F, K128S, V130I
B5: SEQ ID 107, 108: BD29555 CBH I entry site variant: Y31A, T32Y, S72Y, T73Y, T77D (protein)
chain: MSALNSFNMYKSALILGSLLATAGAQQIGTAYAETHPSLSWSTCKSGGSCTTNSGAITLDANWRWVHGVNTYYNCYDGNTWNTAICDTDASCAQDCALDGADYSGTYGITTSGNSLRLNFVTGSNVGSRTYLMADNTHYQIFDLLNQEFTFTVDVSHLPCGLNGALYFVTMDADGGVSKYPNNKAGAQYGVGYCDSQCPRDLKFIAGQANVEGWTPSSNNANTGLGNHGACCAELDIWEANSISEALTPHPCDTPGLSVCTTDACGGTYSSDRYAGTCDPDGCDFNPYRLGVTDFYGSGKTVDTTKPITVVTQFVTDDGTSTGTLSEIRRYYVQNGVVIPQPSSKISGVSGNVINSDFCDAEISTFGETASFSKHGGLAKMGAGMEAGMVLVMSLWDDYSVNMLWLDSTYPTNATGTPGAARGSCPTTSGDPKTVESQSGSSYVTFSDIRVGPFNSTFSGGSSTGGSSTTTASGTTTTKASSTSTSSTSTGTGVAAHWGQCGGQGWTGPTTCASGTTCTVVNPYYSQCL
B6: SEQ ID 119, 120: Loop GeneReassembly entry of Table 6; printed amino acid sequence equals wild type BD29555 (protein)
chain: B5 chain with A31Y, Y32T, Y72S, Y73T, D77T
B7: SEQ ID 113, 114: BD29555 CBH I entry site variant: Y31A, T32Q, T73Y, T77D (protein)
chain: B5 chain with Y32Q, Y72S
B8: SEQ ID 109, 110: BD29555 CBH I entry site variant: Y31Q, T32Q, S72Y, T73Y, T77D (protein)
chain: B5 chain with A31Q, Y32Q
B9: SEQ ID 111, 112: BD29555 CBH I entry site variant: T32W, T73W, T77D (protein)
chain: B5 chain with A31Y, Y32W, Y72S, Y73W
B10: SEQ ID 105, 106: BD29555 CBH I entry site variant: Y31Q, T32Q, S72Y, T77D, F120-VTGSNVG-S128 → F120-VTQSAQKNVG-A131 (protein)
chain: MSALNSFNMYKSALILGSLLATAGAQQIGTQQAETHPSLSWSTCKSGGSCTTNSGAITLDANWRWVHGVNTYTNCYDGNTWNTAICDTDASCAQDCALDGADYSGTYGITTSGNSLRLNFVTQSAQKNVGARTYLMADNTHYQIFDLLNQEFTFTVDVSHLPCGLNGALYFVTMDADGGVSKYPNNKAGAQYGVGYCDSQCPRDLKFIAGQANVEGWTPSSNNANTGLGNHGACCAELDIWEANSISEALTPHPCDTPGLSVCTTDACGGTYSSDRYAGTCDPDGCDFNPYRLGVTDFYGSGKTVDTTKPITVVTQFVTDDGTSTGTLSEIRRYYVQNGVVIPQPSSKISGVSGNVINSDFCDAEISTFGETASFSKHGGLAKMGAGMEAGMVLVMSLWDDYSVNMLWLDSTYPTNATGTPGAARGSCPTTSGDPKTVESQSGSSYVTFSDIRVGPFNSTFSGGSSTGGSSTTTASGTTTTKASSTSTSSTSTGTGVAAHWGQCGGQGWTGPTTCASGTTCTVVNPYYSQCL
B11: SEQ ID 121, 122: BD29555 CBH I variant: P159G, S217K, N222H, L225Y, K345D, N352V, V451W (protein)
chain: MSALNSFNMYKSALILGSLLATAGAQQIGTYTAETHPSLSWSTCKSGGSCTTNSGAITLDANWRWVHGVNTSTNCYTGNTWNTAICDTDASCAQDCALDGADYSGTYGITTSGNSLRLNFVTGSNVGSRTYLMADNTHYQIFDLLNQEFTFTVDVSHLGCGLNGALYFVTMDADGGVSKYPNNKAGAQYGVGYCDSQCPRDLKFIAGQANVEGWTPKSNNAHTGYGNHGACCAELDIWEANSISEALTPHPCDTPGLSVCTTDACGGTYSSDRYAGTCDPDGCDFNPYRLGVTDFYGSGKTVDTTKPITVVTQFVTDDGTSTGTLSEIRRYYVQNGVVIPQPSSDISGVSGVVINSDFCDAEISTFGETASFSKHGGLAKMGAGMEAGMVLVMSLWDDYSVNMLWLDSTYPTNATGTPGAARGSCPTTSGDPKTVESQSGSSYVTFSDIRWGPFNSTFSGGSSTGGSSTTTASGTTTTKASSTSTSSTSTGTGVAAHWGQCGGQGWTGPTTCASGTTCTVVNPYYSQCL
B12: SEQ ID 129, 130: BD29555 CBH I variant: P159G, S217K, N222H, L225Y, Q334S, K345D, E386S (protein)
chain: B11 chain with Q334S, V352N, E386S, W451V
B13: SEQ ID 127, 128: BD29555 CBH I variant: L225Y, D318Q, T324R, S326L, K345D, E386S (protein)
chain: B11 chain with G159P, K217S, H222N, D318Q, T324R, S326L, V352N, E386S, W451V
B14: SEQ ID 123, 124: BD29555 CBH I variant: N222H, L225Y, K345D, N352V, E386S, V451W (protein)
chain: B11 chain with G159P, K217S, E386S
B15: SEQ ID 131, 132: BD29555 CBH I variant: E386S, V451W (protein)
chain: B5 chain with A31Y, Y32T, Y72S, Y73T, D77T, E386S, V451W
B16: SEQ ID 125, 126: BD29555 CBH I variant: S326L, K345D, N352V (protein)
chain: B11 chain with G159P, K217S, H222N, Y225L, S326L, W451V

Assay: Saccharification of pretreated bagasse by CBHI variants in a cocktail with CBHII and EG
Type: biochemical
Settings: Table 6; 5% w/v pretreated bagasse, 35° C., pH5.2, CBHI 4 mg/g cellulose
Procedure: CBHI variants shown in Tables 1 and 5 were assayed under the following conditions: • 5% w/v pretreated bagasse (62.07% cellulose) • 35° C., 300 rpm shaking with 2 BBs per r×n • pH5.2 • 1 mM Sodium Azide • 5 ml total volume • Enzyme Dosing Overview:
• Time point: T=0, 48 hours • Time point (for Point Mutant Recombinants): T=0, 72 hours • % improvement over wt=(% conversion of variant−% conversion of wt)/ • % conversion of wt Results of these assays are shown in Tables 2 and 6. • CBHI variants shown in Table 3 were assayed under the following conditions: […]

Molecule | % improvement over WT @ 48 hr
B1 | 10.9%
B2 | 7.9%
B3 | 18.3%
B4 | 15.9%
B5 | 23.2%
B6 | 18.1%
B7 | 22.2%
B8 | 11.9%
B9 | 9.5%
B10 | 11.8%

Same assay, conditions: Table 6; Point Mutant Recombinants, time point 72 hours

Molecule | % improvement over WT @ 72 hr
B11 | 5.4%
B12 | 17.2%
B13 | 19.2%
B14 | 19.6%
B15 | 12.2%
B16 | 18.6%

Same assay, conditions: Table 6; method not described

Molecule | Dose Reduction
B12 | 0.65X
B13 | 1X
B14 | 0.75X
B3 | 0.75X
B5 | 0.75X
B15 | 0.75X
B16 | 0.6X
B7 | 0.8X
B10 | 0.5X
